Test results taken from article doi:10.1101/2025.09.24.678334.

Target: monomeric actin (ATP•G-actin) from chicken skeletal muscle (chicken) (UniProt P68139)
Assay: SPR; actin (20 nM, about 1000 RU) coupled by EDC/NHS to a CM5 chip; concentration series of analyte; Biacore 8k; 1X HBS-EP+ pH 7.6; Hill equilibrium fit and two-state kinetic fit

- Kd: 20 µM
Substance: human cofilin-1, wild type (a stretch of the chain, no sequence given) (natural protein; other documents disagree on this pair)
